Results as given in the antibiotic and cytotoxicity screens of Wong et al. (2023).
The other results are listed elsewhere or left out.

Legend:
HSkMC = human skeletal muscle cells; assay: cytotoxicity call (relative viability < 0.9); details: 10 µM
HepG2 = assay: cytotoxicity call (relative viability < 0.9); details: 10 µM
S. aureus RN4220 = assay: growth inhibition call (relative growth <= 0.2); details: 50 µM

Compound	cytotoxicity call (HSkMC)	cytotoxicity call (HepG2)	growth inhibition call (S. aureus RN4220)
CCCC1CC(C(=O)NC(C(C)O)C2OC(SC)C(O)C(O)C2O)N(C)C1.Cl (stereo not given)	inactive	inactive	active
COC1CC(OC2C(C)=CCC3CC(CC4(CCC(C)C(C5CCCCC5)O4)O3)OC(=O)C3C=C(C)C(=NO)C4OCC(=CC=CC2C)C34O)OC(C)C1O (stereo not given)	active	active	inactive
C[C@@H]1CN([C@H](C)CO)C(=O)c2cc(NC(=O)Nc3ccc(C(F)(F)F)cc3)ccc2O[C@@H]1CN(C)S(=O)(=O)c1ccc(F)cc1	active	active	inactive
c1csc(-c2nc3ccc4ccccc4c3c3c2CCC3)c1	inactive	inactive	inactive
CC(N)(Cc1ccc2c(c1)OCO2)C(=O)O (stereo not given)	inactive	inactive	inactive
OC[C@H]1O[C@H](O[C@H]2O[C@H](CO)[C@@H](O)[C@H](O)[C@H]2O)[C@H](O)[C@@H](O)[C@@H]1O	inactive	inactive	inactive
Cc1ccc(S(=O)(=O)N(C)C[C@@H]2OCCCC[C@@H](C)Oc3ccc(NC(=O)Nc4cccc5ccccc45)cc3C(=O)N([C@@H](C)CO)C[C@H]2C)cc1	inactive	inactive	inactive
C[C@@H]1CN([C@H](C)CO)C(=O)c2cc(NS(=O)(=O)c3cn(C)cn3)ccc2O[C@@H](C)CCCCO[C@@H]1CN(C)C	inactive	inactive	inactive
CCS(=O)(=O)N1C[C@]2(CCN(CC2)C(=O)Nc2c(noc2C)C)c2c(n(c3cc(ccc23)OC)C)[C@@H]1CO	inactive	inactive	inactive
CNCCCC1c2ccccc2C=Cc2ccccc21.Cl	inactive	active	inactive
